Results from the supplement of paper PMC8728848.
The list shows a part of the results.

Assays:
Test in all cases: glycan array binding signal (z-score within array); higher = stronger binding
Settings in all cases: glycan notation: IUPAC condensed, linker removed
[1] = biological target: Gal(b1-4)GlcNAc(b1-3)Gal(b1-4)GlcNAc(b1-3)Gal(b1-4)GlcNAc(b1-2)Man(a1-3)[Gal(b1-4)GlcNAc(b1-3)Gal(b1-4)GlcNAc(b1-3)Gal(b1-4)GlcNAc(b1-2)Man(a1-6)]Man(b1-4)GlcNAc(b1-4)GlcNAc
Method in brief: (§1)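 Columns mapping to the same glycan were averaged after glycan names were converted to IUPAC-condensed notation. The data come from 3228 arrays in the Consortium for Functional Glycomics database, limited to those with an available protein sequence. Binding is reported as a within-array Z-score averaged across arrays of one protein sequence and across linkers.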

[2] = biological target: Gal(b1-4)GlcNAc(b1-3)Gal(b1-4)GlcNAc(b1-3)Gal(b1-4)GlcNAc(b1-2)Man(a1-3)[Gal(b1-4)GlcNAc(b1-3)Gal(b1-4)GlcNAc(b1-3)Gal(b1-4)GlcNAc(b1-2)Man(a1-6)]Man(b1-4)GlcNAc(b1-4)[Fuc(a1-6)]GlcNAc
Method in brief: as §1

[3] = biological target: Gal(b1-4)GlcNAc(b1-3)Gal(b1-4)GlcNAc(b1-3)Gal(b1-4)GlcNAc(b1-2)[Gal(b1-4)GlcNAc(b1-3)Gal(b1-4)GlcNAc(b1-3)Gal(b1-4)GlcNAc(b1-6)]Man(a1-6)[Gal(b1-4)GlcNAc(b1-3)Gal(b1-4)GlcNAc(b1-3)Gal(b1-4)GlcNAc(b1-2)Man(a1-3)]Man(b1-4)GlcNAc(b1-4)[Fuc(a1-6)]GlcNAc
Method in brief: as §1

[4] = biological target: Gal(b1-4)GlcNAc(b1-3)Gal(b1-4)GlcNAc(b1-3)Gal(b1-4)GlcNAc(b1-3)Gal(b1-4)GlcNAc(b1-2)Man(a1-3)[Gal(b1-4)GlcNAc(b1-3)Gal(b1-4)GlcNAc(b1-3)Gal(b1-4)GlcNAc(b1-3)Gal(b1-4)GlcNAc(b1-2)Man(a1-6)]Man(b1-4)GlcNAc(b1-4)GlcNAc
Method in brief: as §1

[5] = biological target: Gal(b1-4)GlcNAc(b1-3)Gal(b1-4)GlcNAc(b1-3)Gal(b1-4)GlcNAc(b1-3)Gal(b1-4)GlcNAc(b1-2)Man(a1-3)[Gal(b1-4)GlcNAc(b1-3)Gal(b1-4)GlcNAc(b1-3)Gal(b1-4)GlcNAc(b1-3)Gal(b1-4)GlcNAc(b1-2)Man(a1-6)]Man(b1-4)GlcNAc(b1-4)[Fuc(a1-6)]GlcNAc
Method in brief: as §1

[6] = biological target: Gal(b1-4)GlcNAc(b1-3)Gal(b1-4)GlcNAc(b1-3)Gal(b1-4)GlcNAc(b1-3)Gal(b1-4)GlcNAc(b1-2)[Gal(b1-4)GlcNAc(b1-3)Gal(b1-4)GlcNAc(b1-3)Gal(b1-4)GlcNAc(b1-3)Gal(b1-4)GlcNAc(b1-6)]Man(a1-6)[Gal(b1-4)GlcNAc(b1-3)Gal(b1-4)GlcNAc(b1-3)Gal(b1-4)GlcNAc(b1-3)Gal(b1-4)GlcNAc(b1-2)Man(a1-3)]Man(b1-4)GlcNAc(b1-4)[Fuc(a1-6)]GlcNAc
Method in brief: as §1

[7] = biological target: Gal(b1-4)GlcNAc(b1-3)Gal(b1-4)GlcNAc(b1-3)Gal(b1-4)GlcNAc(b1-3)Gal(b1-4)GlcNAc(b1-3)Gal(b1-4)GlcNAc(b1-2)Man(a1-3)[Gal(b1-4)GlcNAc(b1-3)Gal(b1-4)GlcNAc(b1-3)Gal(b1-4)GlcNAc(b1-3)Gal(b1-4)GlcNAc(b1-3)Gal(b1-4)GlcNAc(b1-2)Man(a1-6)]Man(b1-4)GlcNAc(b1-4)GlcNAc
Method in brief: as §1

[8] = biological target: Gal(b1-4)GlcNAc(b1-3)Gal(b1-4)GlcNAc(b1-3)Gal(b1-4)GlcNAc(b1-3)Gal(b1-4)GlcNAc(b1-3)Gal(b1-4)GlcNAc(b1-2)Man(a1-3)[Gal(b1-4)GlcNAc(b1-3)Gal(b1-4)GlcNAc(b1-3)Gal(b1-4)GlcNAc(b1-3)Gal(b1-4)GlcNAc(b1-3)Gal(b1-4)GlcNAc(b1-2)Man(a1-6)]Man(b1-4)GlcNAc(b1-4)[Fuc(a1-6)]GlcNAc
Method in brief: as §1

[9] = biological target: Gal(b1-4)GlcNAc(b1-3)Gal(b1-4)GlcNAc(b1-3)Gal(b1-4)GlcNAc(b1-3)Gal(b1-4)GlcNAc(b1-3)Gal(b1-4)GlcNAc(b1-2)[Gal(b1-4)GlcNAc(b1-3)Gal(b1-4)GlcNAc(b1-3)Gal(b1-4)GlcNAc(b1-3)Gal(b1-4)GlcNAc(b1-3)Gal(b1-4)GlcNAc(b1-6)]Man(a1-6)[Gal(b1-4)GlcNAc(b1-3)Gal(b1-4)GlcNAc(b1-3)Gal(b1-4)GlcNAc(b1-3)Gal(b1-4)GlcNAc(b1-3)Gal(b1-4)GlcNAc(b1-2)Man(a1-3)]Man(b1-4)GlcNAc(b1-4)[Fuc(a1-6)]GlcNAc
Method in brief: as §1

[10] = biological target: Gal(b1-4)GlcNAc(b1-3)Gal(b1-4)GlcNAc(b1-3)Gal(b1-4)GlcNAc(b1-3)Gal(b1-4)GlcNAc(b1-3)Gal(b1-4)GlcNAc(b1-3)Gal(b1-4)GlcNAc(b1-2)Man(a1-3)[Gal(b1-4)GlcNAc(b1-3)Gal(b1-4)GlcNAc(b1-3)Gal(b1-4)GlcNAc(b1-3)Gal(b1-4)GlcNAc(b1-3)Gal(b1-4)GlcNAc(b1-3)Gal(b1-4)GlcNAc(b1-2)Man(a1-6)]Man(b1-4)GlcNAc(b1-4)GlcNAc
Method in brief: as §1

[11] = biological target: Gal(b1-4)GlcNAc(b1-3)Gal(b1-4)GlcNAc(b1-3)GalNAc
Method in brief: as §1

[12] = biological target: Gal(b1-4)GlcNAc(b1-3)Gal(b1-4)GlcNAc(b1-3)[Gal(b1-4)GlcNAc(b1-3)Gal(b1-4)GlcNAc(b1-6)]GalNAc
Method in brief: as §1

[13] = biological target: Gal(b1-4)GlcNAc(b1-3)Gal(b1-4)GlcNAc(b1-6)[Gal(b1-3)]GalNAc
Method in brief: as §1

[14] = biological target: Gal(b1-4)GlcNAc(b1-3)Gal(b1-4)[Fuc(a1-3)]GlcNAc(b1-3)Gal(b1-4)[Fuc(a1-3)]GlcNAc
Method in brief: as §1

[15] = biological target: Gal(b1-4)GlcNAc(b1-3)GalNAc
Method in brief: as §1

[16] = biological target: Gal(b1-4)GlcNAc(b1-3)[Fuc(a1-3)GlcNAc(b1-6)]Gal(b1-4)Glc
Method in brief: as §1

[17] = biological target: Gal(b1-4)GlcNAc(b1-3)[Gal(b1-4)GlcNAc(b1-6)]Gal(b1-4)GlcNAc
Method in brief: as §1

[18] = biological target: Gal(b1-4)GlcNAc(b1-3)[GlcNAc(b1-6)]Gal(b1-4)GlcNAc
Method in brief: as §1

[19] = biological target: Gal(b1-4)GlcNAc(b1-6)Gal(b1-4)GlcNAc
Method in brief: as §1

B1: ECL (Erythrina cristagalli), Q6YD91 (protein)
chain: VETISFSFSEFEPGNNDLTLQGAAIITQSGVLQLTKINQNGMPAWDSTGRTLYTKPVHIWDMTTGTVASFETRFSFSIEQPYTRPLPADGLVFFMGPTKSKPAQGYGYLGVFNNSKQDNSYQTLAVEFDTFSNPWDPPQVPHIGIDVNSIRSIKTQPFQLDNGQVANVVIKYDASSKILLAVLVYPSSGAIYTIAEIVDVKQVLPEWVDVGLSGATGAQRDAAETHDVYSWSFHASLPETND
- glycan array binding signal (z-score) [1]: 3.06
- glycan array binding signal (z-score) [2]: 3.27
- glycan array binding signal (z-score) [3]: 5.28
- glycan array binding signal (z-score) [4]: 3.58
- glycan array binding signal (z-score) [5]: 2.95
- glycan array binding signal (z-score) [6]: 5.63
- glycan array binding signal (z-score) [7]: 3.35
- glycan array binding signal (z-score) [8]: 2.87
- glycan array binding signal (z-score) [9]: 5.32
- glycan array binding signal (z-score) [10]: 2.02
- glycan array binding signal (z-score) [11]: 2.25
- glycan array binding signal (z-score) [12]: 1.45
- glycan array binding signal (z-score) [13]: 1.11
- glycan array binding signal (z-score) [14]: 0.231
- glycan array binding signal (z-score) [15]: -0.029
- glycan array binding signal (z-score) [16]: 0.144
- glycan array binding signal (z-score) [17]: 3.6
- glycan array binding signal (z-score) [18]: 1.35
- glycan array binding signal (z-score) [19]: 0.209
